# Measurements taken from PMC4336329 (PLoS ONE, 2015).
# Screen size: about 310,000 compounds; about 2,200 (0.71%) showed an effect of 50% or more. The effect is printed as a negative number. This is one part of the list. Where a SMILES comes first, the peptide text is derived from it. The star is where a group is joined. Cbz = O=C(OCc1ccccc1)*
# Target: human ether-à-go-go-related gene (hERG) potassium channel (human, UniProt Q12809)
# Experiment: primary screen, population patch clamp on CHO cells stably expressing hERG
# human ether-à-go-go-related gene (hERG) potassium channel, sequence (Q12809 whole entry, looked up): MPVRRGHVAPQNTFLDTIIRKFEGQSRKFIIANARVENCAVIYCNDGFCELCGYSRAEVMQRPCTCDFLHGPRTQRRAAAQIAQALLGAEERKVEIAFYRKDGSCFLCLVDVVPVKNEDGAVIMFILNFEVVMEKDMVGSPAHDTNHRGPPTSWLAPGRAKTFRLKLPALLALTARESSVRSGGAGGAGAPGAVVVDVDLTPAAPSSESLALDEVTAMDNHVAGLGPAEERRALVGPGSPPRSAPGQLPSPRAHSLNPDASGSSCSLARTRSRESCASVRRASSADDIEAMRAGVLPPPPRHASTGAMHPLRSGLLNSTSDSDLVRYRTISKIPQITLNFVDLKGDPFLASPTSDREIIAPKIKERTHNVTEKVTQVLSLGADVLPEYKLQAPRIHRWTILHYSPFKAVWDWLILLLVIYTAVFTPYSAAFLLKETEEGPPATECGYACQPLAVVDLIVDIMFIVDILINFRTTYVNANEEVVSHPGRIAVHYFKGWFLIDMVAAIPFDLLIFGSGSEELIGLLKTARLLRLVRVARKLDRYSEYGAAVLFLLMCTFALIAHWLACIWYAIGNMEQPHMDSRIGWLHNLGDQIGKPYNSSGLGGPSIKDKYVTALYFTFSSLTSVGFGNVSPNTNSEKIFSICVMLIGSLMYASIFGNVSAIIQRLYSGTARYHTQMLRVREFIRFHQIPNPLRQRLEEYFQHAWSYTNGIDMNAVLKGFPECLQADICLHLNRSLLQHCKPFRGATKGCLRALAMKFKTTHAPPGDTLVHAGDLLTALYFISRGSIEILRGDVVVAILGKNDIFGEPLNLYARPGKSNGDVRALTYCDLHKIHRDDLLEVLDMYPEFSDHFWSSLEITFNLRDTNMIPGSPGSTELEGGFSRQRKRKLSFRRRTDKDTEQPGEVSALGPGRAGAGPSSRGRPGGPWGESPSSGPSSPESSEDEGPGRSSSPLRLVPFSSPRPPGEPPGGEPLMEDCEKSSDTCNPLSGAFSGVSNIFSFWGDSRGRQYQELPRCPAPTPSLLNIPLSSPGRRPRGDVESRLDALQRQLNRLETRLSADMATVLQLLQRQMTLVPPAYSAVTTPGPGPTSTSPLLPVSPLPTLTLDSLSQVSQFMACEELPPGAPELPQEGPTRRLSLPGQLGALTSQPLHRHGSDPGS
row,Compound,"hERG current change (%, negative = inhibition) at 1uM [%]"
1,O=C(COC(=O)CN1C(=O)c2cccc([N+](=O)[O-])c2C1=O)NC1CCS(=O)(=O)C1 (centres unmarked),-1.98
2,CCN(CC)C(=O)c1ccc(CS(=O)(=O)c2ccc(Br)cc2)cc1,12
3,Cc1ccc(NC(=O)CCNS(=O)(=O)c2ccc(Br)cc2)cc1S(=O)(=O)N1CCOCC1,12.6
4,COc1ccc(CNC(=O)C2(CC3CC(c4ccccc4)=NO3)CCN(C(=O)CCCCCBr)CC2)cc1 (centres unmarked),-60.3
5,C=CCN(CC=C)C(=S)NC(=O)c1ccc(-c2ccccc2)cc1,8.76
6,CCC(C)C(NC(=O)C(C)NC(=O)CNC(=O)CNC(=O)OCc1ccccc1)C(=O)OC (centres unmarked) (Cbz-GGAI-OMe; configuration not given here),16.5
7,CCN=C(NCC)SC1CC(=O)N(c2cccc(OC)c2)C1=O (centres unmarked),9.19
8,Cc1cccc(-n2nc3c(c2NC(=O)C(C)C)CSC3)c1,-0.316
9,COc1cc(NC(=O)C2=C(N3CCOCC3)/C(=C\c3ccc(Br)cc3)CC2)cc(OC)c1OC,-1.63
10,O=C(c1cccc(N2C(=O)C3CC=CCC3C2=O)c1)N1CCN(c2ccccc2)CC1 (centres unmarked),5.13
11,CN(C)CCN(Cc1cc2cc3c(cc2[nH]c1=O)OCO3)C(=S)NCC1CCCO1 (centres unmarked),9.5
12,Cc1cccn2c(=O)c3cc(C(=O)NC(C)c4ccccc4)c(=N)n(CCCn4ccnc4)c3nc12 (centres unmarked),-10.8
13,Cc1ccc(CNC(=O)CCC2CCCN(C(=O)c3ccc4c(c3)OCO4)C2)o1 (centres unmarked),-1.7
14,COc1ccccc1CN1CC(C(=O)N2CCN(c3ccc(F)cc3)CC2)CC1=O (centres unmarked),-28.2
15,O=C(Cc1cccc(NC(=O)C2CCN(C(=O)c3ccccc3)CC2)c1)Nc1cccc(C(=O)N2CCCC2)c1,13
16,CC(Oc1ccc(Cl)cc1)C(=O)Nc1ncccn1 (centres unmarked),-4.09
17,O=C(/C=C/c1cccs1)N1CCc2ccccc21,12.1
18,COc1cccc2cc(C(=O)N3CCN(c4ncccn4)CC3)c(=O)oc12,1.55
19,Cc1cccc2cc(C(c3nnnn3CC3CCCO3)N3CCOCC3)c(=O)[nH]c12 (centres unmarked),0.926
20,CC(C)CNS(=O)(=O)c1ccc(CCC(=O)N2CCN(c3ccccc3)CC2)cc1,-61.5
21,COc1ccc(N2CCN(CCCNC(=O)CCCn3c(=O)[nH]c4ccsc4c3=O)CC2)cc1,4.24
22,O=C(NCCc1cccc(C(F)(F)F)c1)C1CCC(=O)N(CCc2cccc(F)c2)C1 (centres unmarked),-30.8

row,Compound,"hERG current change (%, negative = inhibition) at 1uM [%]"
1,O=C(NN1C(=O)C2C(C1=O)C1C=CC2C12CC2)c1ccc(Cl)cc1 (centres unmarked),-0.197
2,COc1cc(C(O)CO)ccc1OS(=O)(=O)[O-].[K+] (centres unmarked),10.4
3,CC(C)c1ccc(N(C(=O)c2csnn2)C(C(=O)NC2CCCC2)c2cccnc2)cc1 (centres unmarked),2.37
4,CCn1cc(/C=C/C(=O)Nc2c(C)nn(Cc3ccccc3C)c2C)cn1,15.5
5,O=C(O)c1ccc(Nc2ccc(F)c(F)c2)c([N+](=O)[O-])c1,9.1
6,COC(=O)c1cccc(NS(C)(=O)=O)c1,13.4
7,COc1cccc(N(CC(=O)NCc2ccccc2)C(=O)CCC(=O)Nc2nccs2)c1,13.1
8,O=C(C(=O)N1CCN(c2ccc(F)cc2)CC1)N1CCCCC1,0.182
9,COc1ccc(Cl)cc1NC(=O)CN1CCN(C(=O)N2CCOCC2)CC1,-10.4
10,C=C(C)Cn1c(-c2ccc(OC)cc2)nc2ccccc21,-3.5
11,Cc1ccc(S(=O)(=O)N2[C@@H](c3ccccc3F)C(C(=O)O)=CC[C@H]2c2ccc3c(c2)OCO3)cc1,19.2
12,CC1(C)Oc2ccc3ccc(=O)oc3c2/C(=C/N)C1=O,11.7
13,O=C(NCC(=O)N(c1ccc(F)cc1)C(C(=O)NC1CCCC1)c1ccncc1)c1ccco1 (centres unmarked),16.8
14,CCn1cc([N+](=O)[O-])c(C(=O)Nc2cc(C)on2)n1,1.32
15,CCOC(=O)C1(CCCCCCOc2ccc(Cl)cc2)CO1 (centres unmarked),4.14
16,COc1ccc2nc(C)cc(SCC(NC(C)=O)C(=O)OC(C)C)c2c1 (centres unmarked),0.771
17,COc1nc(NC(=O)c2ccc(F)cc2)nc(OC)c1-c1ccccc1,12
18,C1=C(c2ccccc2)Nc2ccccc2N=C1c1ccccc1,4.22
19,CCOC(=O)C(CCCCCCP(=O)(c1ccccc1)c1ccccc1)NC(C)=O (centres unmarked),8.32
20,Cc1ccc(CSc2nnc(NC(=O)C3COc4ccccc4O3)s2)cc1 (centres unmarked),18.7
21,COC(=O)c1cc(Br)c(=O)n(-c2nccs2)c1,2.77
22,CC(C)=CCN1CCN(Cc2ccc3nsnc3c2)CC1CCO (centres unmarked),4.93

row,Compound,"hERG current change (%, negative = inhibition) at 1uM [%]"
1,O=C(O)/C=C/c1ccccc1[N+](=O)[O-],16.9
2,COc1ccccc1OC(C)C(=O)O (centres unmarked),12.3
3,FC(F)(F)c1cccc(Cc2noc(CN3CCC(c4ccncc4)CC3)n2)c1,1.38
4,COC(=O)c1cc(-c2cccs2)[nH]n1,11.7
5,O=C(CSc1nnc2ncccn12)Nc1cccc2ccccc12,7.05
6,Cc1ccc(-c2nc3ncccc3o2)cc1NC(=O)c1ccc([N+](=O)[O-])o1,-8.08
7,CC(C)(C)C(=O)N1CCN(c2ccc(NC(=O)c3ccc([N+](=O)[O-])o3)cc2)CC1,15.1
8,CCNS(=O)(=O)c1ccc(CCC(=O)NCc2cccnc2)cc1,14.1
9,CCOc1ccc(/C=C/C(=O)Oc2ccccc2)cc1,19.1
10,Cc1ccc(N(CCCCN2C(=O)c3ccccc3C2=O)C(=O)c2cccc([N+](=O)[O-])c2)cc1,-10.9
11,COc1cc(NC(=O)CC(C)S(=O)(=O)c2ccc3c(c2)NC(=O)CO3)cc(OC)c1OC (centres unmarked),6.08
12,COc1ccc(C(NC(=O)c2ccc(-c3ccccc3)cc2)c2ccccc2)cc1 (centres unmarked),1.43
13,O=C(Nc1cc(C(F)(F)F)ccc1-n1cncn1)c1ccc(Cl)cc1,2.51
14,CCOc1cc(S(=O)(=O)NC2CC(C)(C)NC(C)(C)C2)ccc1F,5.83
15,CC1CCCC(C)N1C(=O)COC(=O)CCC1CCCC1 (centres unmarked),9.29
16,Cc1nn2c(N3CCN(C4CCCC4)CC3)cc(C(C)(C)C)nc2c1-c1ccccc1,-1.17
17,CCOC(=O)c1c(C)sc2c1N(C(=O)CCl)c1cc(Cl)ccc1S2,1.94
18,CC(CNC(=O)c1ccco1)NC(=O)c1ccco1 (centres unmarked),13.5
19,CC(NC(=O)c1ccc(NC(=O)CC2SC(N3CCCC3)=NC2=O)cc1)c1ccccc1 (centres unmarked),12.8
20,COCC(C)n1c(C)cc(C(=O)CN2C(=O)NC(Cc3c[nH]c4ccccc34)C2=O)c1C (centres unmarked),18.5
21,CC(C)CN(C(=O)COC(=O)c1ccccc1NCc1ccco1)c1c(N)n(Cc2ccccc2)c(=O)[nH]c1=O,-2.96
22,O=C1C(=O)N(CC2COc3ccccc3O2)c2ccccc21 (centres unmarked),17.8

row,Compound,"hERG current change (%, negative = inhibition) at 1uM [%]"
1,N=C1C(=O)OCC1c1ccccc1NC(=O)c1ccc(F)cc1 (centres unmarked),10
2,O=C(NCCc1cnc[nH]1)c1ccc(-c2ccccc2)cc1,5.83
3,COc1ccccc1NC(=O)CSc1nnc(-c2ccco2)o1,8.16
4,COc1ccc(C(C)=O)cc1COC(=O)CNC(=O)c1ccccc1F,7.66
5,COc1ccc(N2CCN(C(=O)CNC(=O)Cn3cnc4sc(C)c(C)c4c3=O)CC2)cc1,9.32
6,Cc1ccc(Cl)cc1NC(=O)C1CC(=O)Nc2ncnn21 (centres unmarked),8.13
7,Cc1cccc(OCC(=O)Nc2ccccc2N2CCCCC2)c1,4.25
8,CC1(C)CC(=O)C(C(=O)CCCCC(=O)C2C(=O)CC(C)(C)CC2=O)C(=O)C1,0.766
9,CCc1ccccc1NC(=O)CCC(=O)OCC(=O)c1ccc(-c2ccccc2)cc1,4.76
10,CCSc1nnc(-c2ccccc2N)c(=O)[nH]1,14.4
11,COc1ccccc1N1CCN(S(=O)(=O)c2ccccc2)CC1,-2.04
12,COc1ccc(NC(=S)N2CCN(C(=O)c3ccccc3)CC2)cc1,0.609
13,COc1ccc(Cl)cc1NC(=O)Nc1ccccc1SC,10.8
14,COc1ccc(C2CC(C)=C(C#N)S(=O)(=O)C2C#N)cc1 (centres unmarked),6.79
15,CCCCON1C(=O)c2cccc3cccc(c23)C1=O,8.5
16,CCOCCCNC(=O)CN1C(=O)NC(Cc2c[nH]c3ccccc23)C1=O (centres unmarked),1.59
17,CCN(CC)S(=O)(=O)c1ccc(NC(=O)Nc2cccc(C(F)(F)F)c2)cc1,10.1
18,O=C(Nc1ccccc1)N1CC2CC(C1)c1cccc(=O)n1C2 (centres unmarked),14.7
19,O=C(N/N=C/C(Cl)=C/c1ccccc1)c1ccccn1,7.13
20,O=C(Nc1nccs1)c1sc2cc(Cl)ccc2c1Cl,9.44
